# The supplement of paper PMC12217912
# The list shows a part of the results. The full chains were built here from the parent and the listed change. Inactive controls read about 0.05.
# B1: TEV protease; numbered along this chain (parent)
# chain: MGESLFKGPRDYNPISSSICHLTNESDGHTTSLYGIGFGPFIITNKHLFRRNNGTLVVQSLHGVFKVKDTTTLQQHLVDGRDMIIIRMPKDFPPFPQKLKFREPQREERICLVTTNFQTKSMSSMVSDTSCTFPSGDGIFWKHWIQTKDGQCGSPLVSTRDGFIVGIHSASNFTNTNNYFTSVPKNFMELLTNQEAQQWVSGWRLNADSVLWGGHKVFMVKPEEPFQPVKEATQL
# Variants of: B1
# Assay: raw area under fraction-flipped curve 0-4 h after induction (AUC4h, not background-subtracted), DNA-recorder readout of cleavage of the substrate (dimensionless); higher = more cleavage of the substrate by the protease variant
# Conditions: temperature: 34 °C; time window: 0-4 h after rhamnose induction
# 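Further: Bxb1 expression induced with 0.2% (w/v) L-rhamnose at OD600 near 0.5, cultures sampled hourly, flipped fraction per protease–substrate barcode pair counted by paired-end Illumina sequencing.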
Variant,area with substrate EDLYFQS,area with substrate EILYFQS,area with substrate EKLYFQS,area with substrate EMLYFQS,area with substrate ERLYFQS,area with substrate ESLYFQS,area with substrate EWLYFQS,area with substrate EELYFQS,area with substrate EFLYFQS,area with substrate ELLYFQS
G138W,0.0842,0.0844,0.0872,0.0767,0.0994,0.105,0.0815,–,–,–
G138Y,–,–,0.0936,–,–,0.0982,–,0.049,0.102,0.0885
G138L,–,0.105,–,–,–,–,–,0.0814,0.111,–
P222T,–,–,0.11,–,0.118,0.124,–,0.138,–,–
F101H,0.0275,0.0321,–,–,0.0443,0.0549,–,–,–,–
H215L,0.0893,0.0752,–,–,0.0869,0.0644,–,0.0791,–,0.0746
H215I,0.114,0.0808,–,–,–,–,–,–,–,–
H215F,0.0965,–,0.0668,–,–,0.086,–,–,–,–
H215K,0.08,0.0808,–,0.0718,0.0789,0.0816,–,–,–,0.074
L235F,–,0.0804,–,–,0.0999,–,–,0.171,–,–
L235Y,–,–,–,–,0.0936,0.111,–,–,–,–
A170W,0.0568,0.0591,–,0.0566,–,0.0455,0.0631,0.0634,–,–
G150A,0.0537,–,–,–,–,0.0572,–,–,0.0556,–
S135L,0.0678,0.0553,0.0475,–,–,–,–,–,–,–
V57I,–,0.113,0.096,–,–,0.0895,–,0.141,–,–
S121F,0.123,0.0873,0.118,0.122,0.0682,–,0.105,0.122,–,–
G213T,0.0722,0.0655,0.0601,–,–,0.0531,0.0538,0.0688,0.0375,0.0718
G213C,–,0.0657,0.066,0.0753,0.0451,0.0609,0.0594,–,–,0.0702
E108G,0.0841,0.0726,0.0753,–,0.084,0.0568,–,–,–,0.0585
L211N,0.133,0.101,–,0.129,–,0.107,0.125,0.181,–,0.151
L211I,0.14,–,–,0.101,–,0.1,–,–,–,–
I145G,0.111,0.0836,–,–,0.0859,–,–,0.138,–,–

Variant,area with substrate EDLYFQS,area with substrate EILYFQS,area with substrate EKLYFQS,area with substrate EMLYFQS,area with substrate ERLYFQS,area with substrate ESLYFQS,area with substrate EWLYFQS,area with substrate EELYFQS,area with substrate EFLYFQS,area with substrate ELLYFQS
F163A,0.103,–,–,–,–,–,–,–,–,0.105
F163P,0.0665,0.0463,–,0.0559,–,–,0.0662,0.0581,–,–
F163M,–,–,–,–,0.101,0.0853,–,0.122,0.108,–
K185A,–,–,–,–,–,–,–,0.091,–,–
K185L,–,0.0782,0.111,0.087,–,0.113,–,0.122,0.0935,–
K185V,0.12,0.128,–,0.0978,–,0.053,–,–,–,–
Q74I,–,–,–,–,0.0915,–,0.0902,0.0976,–,–
D149P,0.145,–,0.0941,0.0952,–,0.103,–,0.0977,–,–
Q97C,–,–,–,0.119,–,–,–,0.123,–,–
V220S,0.165,–,0.117,0.118,–,0.113,–,0.113,–,–
V67G,0.0737,–,0.0634,–,–,0.0714,0.0544,–,–,0.0608
S209R,0.116,0.0868,0.0568,–,0.0685,0.0595,0.109,0.11,–,0.0795
S209H,–,–,–,–,0.104,0.102,–,0.146,–,0.117
S209K,0.112,0.0766,–,0.11,–,0.0743,0.0706,–,–,0.0843
S209Y,–,–,–,–,–,0.115,–,–,–,0.0771
D91E,0.126,–,–,–,–,–,–,–,–,–
D91M,–,–,0.0834,0.0906,–,–,–,0.112,–,–
F226V,0.141,0.113,–,–,–,0.103,–,–,–,–
H76G,0.127,0.103,0.151,0.103,0.0913,0.0774,0.133,–,–,–
P228S,–,–,–,0.115,–,0.137,–,0.0979,0.107,–
P228Y,–,0.0695,0.0687,–,0.104,0.0967,–,0.11,–,–
P228R,–,0.0886,0.111,0.121,0.132,–,–,–,0.0964,–

# Same assay, conditions: temperature: 34 °C; time window: 0-4 h after rhamnose induction
Variant,area with substrate EPLYFQS,area with substrate EQLYFQS,area with substrate ETLYFQS,area with substrate EVLYFQS,area with substrate EYLYFQS,area with substrate ECLYFQS,area with substrate EGLYFQS,area with substrate EHLYFQS
G138Y,0.118,0.093,0.103,0.0849,0.123,–,–,–
G138L,0.109,–,–,0.0953,–,–,–,–
P222T,0.117,0.0965,–,0.0768,–,0.0889,–,–
F101H,–,–,0.0513,0.0428,–,–,0.0435,–
H215L,–,0.0771,–,0.0942,0.0715,0.0883,–,0.0741
H215F,0.0904,0.109,–,0.0872,0.0786,0.0833,–,0.0958
H215K,0.088,–,–,0.072,–,0.0763,–,–
L235F,0.111,–,–,0.079,–,0.0936,–,–
L235Y,0.148,0.0897,–,–,–,0.108,–,0.113
A170W,0.0588,–,–,0.0732,0.0573,–,–,–
G150A,0.0699,0.0789,–,0.0794,–,–,–,–
S135L,0.0752,–,–,–,–,–,0.0591,–
V57I,–,0.111,–,–,–,–,–,–
S121F,–,0.104,0.123,0.0771,–,–,–,0.104
G213T,0.0693,–,0.0599,–,–,0.0636,–,0.0482
G213C,–,–,0.0508,0.0592,–,0.0748,0.0627,0.0756
E108G,–,0.0727,–,–,–,–,–,0.0759
L211N,–,–,–,–,–,0.138,0.121,–
L211I,–,–,–,0.0795,–,0.1,–,–
I145G,–,0.121,–,–,0.0926,–,0.0766,0.0955

Variant,area with substrate EPLYFQS,area with substrate EQLYFQS,area with substrate ETLYFQS,area with substrate EVLYFQS,area with substrate EYLYFQS,area with substrate ECLYFQS,area with substrate EGLYFQS,area with substrate EHLYFQS
F163A,–,0.119,–,–,–,–,–,–
F163P,–,–,0.0365,0.0488,–,–,–,0.0546
F163M,0.129,–,–,–,–,–,–,0.106
K185A,0.126,–,–,0.105,–,–,–,0.107
K185L,0.136,0.138,–,–,0.106,–,0.056,–
K185V,0.103,–,–,–,–,–,–,0.0911
Q74I,0.0927,0.0751,–,–,0.0777,–,–,–
D149P,–,0.09,–,0.0627,–,–,0.0577,0.0922
V220S,–,–,0.124,–,–,0.108,0.0921,–
V67G,0.0669,–,0.0425,0.0453,0.0631,–,0.0487,0.0538
S209R,–,–,–,0.0746,0.0644,–,–,–
S209H,–,–,0.103,–,–,0.103,–,–
S209K,–,0.0931,–,0.0582,–,–,0.0668,0.0917
S209Y,0.168,–,–,–,0.17,0.117,–,–
F226V,–,0.12,–,0.12,–,–,–,–
H76G,–,–,–,–,–,–,0.109,–
P228S,–,–,0.124,–,0.112,0.0637,0.104,–
P228Y,–,–,0.106,0.0831,0.102,0.116,–,0.107
P228R,0.137,0.108,–,–,–,0.132,0.114,–
